# Measured values taken from the supplement of paper PMC8728848.
# The other results are listed elsewhere or left out.
# B1: Pp2-A2 (Arabidopsis thaliana), Q07098 (protein)
# chain: MPSNGDLDRQIEQLMECKPLSEADVRTLCDQARAILVEEYNVQPVKCPVTVCGDIHGQFYDLIELFRIGGNAPDTNYLFMGDYVDRGYYSVETVSLLVALKVRYRDRLTILRGNHESRQITQVYGFYDECLRKYGNANVWKYFTDLFDYLPLTALIESQVFCLHGGLSPSLDTLDNIRSLDRIQEVPHEGPMCDLLWSDPDDRCGWGISPRGAGYTFGQDIAAQFNHNNGLSLISRAHQLVMEGFNWCQDKNVVTVFSAPNYCYRCGNMAAILEIGENMEQNFLQFDPAPRQVEPDTTRKTPDYFL
# Assays:
# Assay in all cases: glycan array binding signal (z-score within array); higher = stronger binding
# Conditions in all cases: glycan notation: IUPAC condensed, linker removed
# Fuc(a1-2)Gal = biological target: Fuc(a1-2)Gal
# Procedure, shortened: (§1)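 The Consortium for Functional Glycomics database supplied 3228 glycan arrays, of which those lacking an available protein sequence were dropped. The binding signal, a within-array Z-score, was averaged across arrays of the same protein sequence and across linkers. Negative scores can be read as non-binding.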
# Fuc(a1-2)Gal(b1-3)GalNAc = biological target: Fuc(a1-2)Gal(b1-3)GalNAc
# Procedure, shortened: as §1
# [1] = biological target: Fuc(a1-2)Gal(b1-3)GalNAc(a1-3)[Fuc(a1-2)]Gal(b1-4)Glc
# Procedure, shortened: as §1
# [2] = biological target: Fuc(a1-2)Gal(b1-3)GalNAc(a1-3)[Fuc(a1-2)]Gal(b1-4)GlcNAc
# Procedure, shortened: as §1
# [3] = biological target: Fuc(a1-2)Gal(b1-3)GalNAc(b1-3)Gal
# Procedure, shortened: as §1
# [4] = biological target: Fuc(a1-2)Gal(b1-3)GalNAc(b1-3)Gal(a1-4)Gal(b1-4)Glc
# Procedure, shortened: as §1
# [5] = biological target: Fuc(a1-2)Gal(b1-3)GalNAc(b1-4)[Neu5Ac(a2-3)]Gal(b1-4)Glc
# Procedure, shortened: as §1
# Fuc(a1-2)Gal(b1-3)GlcNAc = biological target: Fuc(a1-2)Gal(b1-3)GlcNAc
# Procedure, shortened: as §1
# [6] = biological target: Fuc(a1-2)Gal(b1-3)GlcNAc(b1-2)Man(a1-3)[Fuc(a1-2)Gal(b1-3)GlcNAc(b1-2)Man(a1-6)]Man(b1-4)GlcNAc(b1-4)GlcNAc
# Procedure, shortened: as §1
# [7] = biological target: Fuc(a1-2)Gal(b1-3)GlcNAc(b1-3)Gal(b1-4)Glc
# Procedure, shortened: as §1
# [8] = biological target: Fuc(a1-2)Gal(b1-3)GlcNAc(b1-3)[Fuc(a1-3)[Gal(b1-4)]GlcNAc(b1-6)]Gal(b1-4)Glc
# Procedure, shortened: as §1
# [9] = biological target: Fuc(a1-2)Gal(b1-3)[Fuc(a1-4)]GlcNAc
# Procedure, shortened: as §1
# [10] = biological target: Fuc(a1-2)Gal(b1-3)[Fuc(a1-4)]GlcNAc(b1-2)Man(a1-3)[Fuc(a1-2)Gal(b1-3)[Fuc(a1-4)]GlcNAc(b1-2)Man(a1-6)]Man(b1-4)GlcNAc(b1-4)GlcNAc
# Procedure, shortened: as §1
# [11] = biological target: Fuc(a1-2)Gal(b1-3)[Fuc(a1-4)]GlcNAc(b1-3)[Fuc(a1-3)[Gal(b1-4)]GlcNAc(b1-6)]Gal(b1-4)Glc
# Procedure, shortened: as §1
# [12] = biological target: Fuc(a1-2)Gal(b1-3)[Fuc(a1-4)]GlcNAc(b1-3)[Gal(b1-4)GlcNAc(b1-6)]Gal(b1-4)Glc
# Procedure, shortened: as §1
# Fuc(a1-2)Gal(b1-4)Glc = biological target: Fuc(a1-2)Gal(b1-4)Glc
# Procedure, shortened: as §1
# Fuc(a1-2)Gal(b1-4)Glc6S = biological target: Fuc(a1-2)Gal(b1-4)Glc6S
# Procedure, shortened: as §1
# Fuc(a1-2)Gal(b1-4)GlcNAc = biological target: Fuc(a1-2)Gal(b1-4)GlcNAc
# Procedure, shortened: as §1
# [13] = biological target: Fuc(a1-2)Gal(b1-4)GlcNAc(b1-2)Man(a1-3)[Fuc(a1-2)Gal(b1-4)GlcNAc(b1-2)Man(a1-6)]Man(b1-4)GlcNAc(b1-4)GlcNAc
# Procedure, shortened: as §1
# [14] = biological target: Fuc(a1-2)Gal(b1-4)GlcNAc(b1-3)Gal(b1-4)GlcNAc
# Procedure, shortened: as §1
# [15] = biological target: Fuc(a1-2)Gal(b1-4)GlcNAc(b1-3)Gal(b1-4)GlcNAc(b1-3)Gal(b1-4)GlcNAc
# Procedure, shortened: as §1
# [16] = biological target: Fuc(a1-2)Gal(b1-4)GlcNAc(b1-3)GalNAc
# Procedure, shortened: as §1
# [17] = biological target: Fuc(a1-2)Gal(b1-4)GlcNAc6S
# Procedure, shortened: as §1
# [18] = biological target: Fuc(a1-2)Gal(b1-4)[Fuc(a1-3)]GlcNAc
# Procedure, shortened: as §1
# [19] = biological target: Fuc(a1-2)Gal(b1-4)[Fuc(a1-3)]GlcNAc(b1-2)Man(a1-3)[Fuc(a1-2)Gal(b1-4)[Fuc(a1-3)]GlcNAc(b1-2)Man(a1-6)]Man(b1-4)GlcNAc(b1-4)GlcNAc
# Procedure, shortened: as §1
# [20] = biological target: Fuc(a1-2)Gal(b1-4)[Fuc(a1-3)]GlcNAc(b1-3)Gal(b1-4)[Fuc(a1-3)]GlcNAc
# Procedure, shortened: as §1
# [21] = biological target: Fuc(a1-2)Gal(b1-4)[Fuc(a1-3)]GlcNAc(b1-3)Gal(b1-4)[Fuc(a1-3)]GlcNAc(b1-3)Gal(b1-4)[Fuc(a1-3)]GlcNAc
# Procedure, shortened: as §1
# Fuc(a1-2)Gal6S(b1-4)Glc = biological target: Fuc(a1-2)Gal6S(b1-4)Glc
# Procedure, shortened: as §1
# [22] = biological target: Fuc(a1-2)Gal6S(b1-4)Glc6S
# Procedure, shortened: as §1
# [23] = biological target: Fuc(a1-2)Gal6S(b1-4)GlcNAc
# Procedure, shortened: as §1
binder,measurement,setting,value
B1,glycan array binding signal (z-score),Fuc(a1-2)Gal,-0.206
same,glycan array binding signal (z-score),Fuc(a1-2)Gal(b1-3)GalNAc,-0.504
same,glycan array binding signal (z-score),[1],-0.448
same,glycan array binding signal (z-score),[2],-0.349
same,glycan array binding signal (z-score),[3],0.104
same,glycan array binding signal (z-score),[4],-0.127
same,glycan array binding signal (z-score),[5],-0.479
same,glycan array binding signal (z-score),Fuc(a1-2)Gal(b1-3)GlcNAc,-0.844
same,glycan array binding signal (z-score),[6],-0.444
same,glycan array binding signal (z-score),[7],-0.206
same,glycan array binding signal (z-score),[8],-0.539
same,glycan array binding signal (z-score),[9],-0.581
same,glycan array binding signal (z-score),[10],2.08
same,glycan array binding signal (z-score),[11],-0.327
same,glycan array binding signal (z-score),[12],-0.633
same,glycan array binding signal (z-score),Fuc(a1-2)Gal(b1-4)Glc,-0.175
same,glycan array binding signal (z-score),Fuc(a1-2)Gal(b1-4)Glc6S,0.143
same,glycan array binding signal (z-score),Fuc(a1-2)Gal(b1-4)GlcNAc,-0.593
same,glycan array binding signal (z-score),[13],-0.503
same,glycan array binding signal (z-score),[14],-0.543
same,glycan array binding signal (z-score),[15],-0.448
same,glycan array binding signal (z-score),[16],-0.628
same,glycan array binding signal (z-score),[17],0.385
same,glycan array binding signal (z-score),[18],-0.231
same,glycan array binding signal (z-score),[19],1.48
same,glycan array binding signal (z-score),[20],-0.337
same,glycan array binding signal (z-score),[21],-0.4
same,glycan array binding signal (z-score),Fuc(a1-2)Gal6S(b1-4)Glc,-0.157
same,glycan array binding signal (z-score),[22],0.903
same,glycan array binding signal (z-score),[23],-0.734
